Results are given in words; binding and its absence hold for the method and conditions named. Binding seen in cells or lysates may run through a third protein. Some binding calls cover weakened binding; strength is not graded here.
Tests used:
[1] = biological target: LptE^His (Escherichia coli) (UniProt P0ADC1); assay: pull-down; Ni-affinity purification of LptE^His from the DDM-solubilized envelope fraction of ΔlptM cells with pLptDE^His or its LptD Cys-to-Ser derivatives; Ni-NTA 2 h at 4 °C, 50 mM Tris-HCl pH 8, 150 mM NaCl, DDM; SDS-PAGE or BN-PAGE, Coomassie staining or Western blotting
[2] = biological target: LptE^His (Escherichia coli) (UniProt P0ADC1); assay: pull-down; Ni-affinity purification of LptE^His from the DDM-solubilized envelope fraction of wild-type (lptM^+) cells with pLptDE^His; Ni-NTA 2 h at 4 °C, 50 mM Tris-HCl pH 8, 150 mM NaCl, DDM; SDS-PAGE or BN-PAGE, Coomassie staining or Western blotting

Sequences of proteins named here, by UniProt entry; tags and fusion partners are left off. Residues count along the entry.
UniProt P0ADC1, residues 19-193: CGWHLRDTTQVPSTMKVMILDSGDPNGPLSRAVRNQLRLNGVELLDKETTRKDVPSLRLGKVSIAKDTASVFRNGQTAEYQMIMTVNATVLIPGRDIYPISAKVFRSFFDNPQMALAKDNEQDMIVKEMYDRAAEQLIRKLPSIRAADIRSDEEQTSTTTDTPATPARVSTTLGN
UniProt P0AC02, residues 20-245: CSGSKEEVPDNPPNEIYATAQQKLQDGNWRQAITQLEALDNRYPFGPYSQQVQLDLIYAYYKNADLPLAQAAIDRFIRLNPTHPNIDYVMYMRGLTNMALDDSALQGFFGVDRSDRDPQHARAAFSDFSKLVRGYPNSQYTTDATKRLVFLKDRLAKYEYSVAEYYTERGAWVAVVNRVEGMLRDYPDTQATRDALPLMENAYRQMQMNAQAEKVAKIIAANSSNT
UniProt P0A937, residues 20-113: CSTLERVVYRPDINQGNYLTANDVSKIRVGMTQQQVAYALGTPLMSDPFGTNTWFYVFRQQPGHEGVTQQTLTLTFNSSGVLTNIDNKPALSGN

| binding [1] | Substance | binding [2] |
| --- | --- | --- |
| binds | BamD (from UniProt P0AC02 20-245) | no binding (condition: from lptM^+ cells (LptM present)) |
| binds | BamE (from UniProt P0A937 20-113) | no binding (condition: from lptM^+ cells (LptM present)) |

From paper PMC10567701
